Measurements taken from article PMC4336329 (PLoS ONE, 2015).
The whole screen tested about 310,000 compounds, of which about 14,000 (4.5%) showed an effect of 50% or more. The effect is printed as a negative number. Some of the results follow.

target: human ether-à-go-go-related gene (hERG) potassium channel (human, UniProt Q12809); assay: primary screen, population patch clamp on CHO cells stably expressing hERG
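Note: peak tail current of the secondary pulse compared with the same well before compound.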

Chain of human ether-à-go-go-related gene (hERG) potassium channel (Q12809 whole entry, looked up): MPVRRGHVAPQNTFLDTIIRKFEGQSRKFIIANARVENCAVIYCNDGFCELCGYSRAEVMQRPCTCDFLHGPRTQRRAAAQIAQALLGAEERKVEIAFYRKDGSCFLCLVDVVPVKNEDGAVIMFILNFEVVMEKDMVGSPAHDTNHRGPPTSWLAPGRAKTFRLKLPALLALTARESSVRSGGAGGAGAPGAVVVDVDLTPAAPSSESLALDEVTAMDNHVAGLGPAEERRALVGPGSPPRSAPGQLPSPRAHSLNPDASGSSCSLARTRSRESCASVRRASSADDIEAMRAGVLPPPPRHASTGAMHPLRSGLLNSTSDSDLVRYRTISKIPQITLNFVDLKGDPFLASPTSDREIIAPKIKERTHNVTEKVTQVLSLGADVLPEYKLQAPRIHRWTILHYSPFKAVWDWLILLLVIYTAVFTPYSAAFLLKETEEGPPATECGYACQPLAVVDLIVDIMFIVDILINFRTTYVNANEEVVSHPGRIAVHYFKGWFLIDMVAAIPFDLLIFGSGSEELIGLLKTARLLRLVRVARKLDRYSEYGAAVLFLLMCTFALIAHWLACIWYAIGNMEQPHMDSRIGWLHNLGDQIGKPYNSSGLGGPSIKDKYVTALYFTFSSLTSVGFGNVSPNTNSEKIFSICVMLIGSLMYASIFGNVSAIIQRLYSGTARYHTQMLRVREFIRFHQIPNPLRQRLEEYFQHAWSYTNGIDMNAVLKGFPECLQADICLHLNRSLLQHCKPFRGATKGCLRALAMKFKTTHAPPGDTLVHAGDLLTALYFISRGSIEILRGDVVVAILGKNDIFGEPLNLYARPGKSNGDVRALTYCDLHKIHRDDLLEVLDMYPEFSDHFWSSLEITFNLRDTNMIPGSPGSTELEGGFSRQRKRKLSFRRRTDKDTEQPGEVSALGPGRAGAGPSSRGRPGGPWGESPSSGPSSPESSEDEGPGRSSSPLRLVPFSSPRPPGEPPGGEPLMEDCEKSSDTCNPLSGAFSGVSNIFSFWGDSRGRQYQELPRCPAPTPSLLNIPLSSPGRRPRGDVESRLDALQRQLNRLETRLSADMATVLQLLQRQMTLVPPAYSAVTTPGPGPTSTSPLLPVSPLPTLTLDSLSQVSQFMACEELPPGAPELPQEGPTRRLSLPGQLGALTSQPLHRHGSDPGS

SMILES | hERG current change (%, negative = inhibition) at 10uM [%]
C=CCN(c1ccc(C(=O)NCCc2ccccc2)cc1)S(C)(=O)=O | -6.23
CC(C)Oc1ccc(S(=O)(=O)N2CCOCC2)cc1NC(=O)C1CSC2(C)CCC(=O)N12 (centres unmarked) | -7.56
Cc1c(C(c2ccc(Cl)cc2Cl)c2c(O)c3ccccc3oc2=O)c(=O)n(-c2ccccc2)n1C (centres unmarked) | -19.3
O=S(=O)(NC1CCCCCCC1)c1ccc(F)cc1 | 0.036
O=C(C1CCN(Cc2ccc(OCc3ccccc3)cc2)CC1)N1CCCC1 | -47.1
Cc1ccc(NS(=O)(=O)c2cc(C(=O)N3CCCC3)ccc2C)cc1C | 7.04
O=C(NCCc1ccc(Cl)cc1)C1CCCN1C(=O)Nc1ccc(F)cc1 (centres unmarked) | -31.3
O=C(CSc1nnc(-c2ccncc2)o1)c1ccc2c(c1)OCCO2 | 9.18
Cc1ccc(Cc2c(C)nc3nc(SCC(=O)NCCCN4CCCCC4)nn3c2C)cc1 | -42.7
COc1ccc2oc(C(=O)NCC(Cc3ccccc3)N(C)C)c(C)c2c1 (centres unmarked) | -37.6
CCC(C)(C)NS(=O)(=O)c1cc(CN2C(=O)c3cccnc3C2=O)ccc1OC | 10.7
O=C(c1ccccc1F)N1CCN(c2ccc([N+](=O)[O-])c(NCC3CCCO3)c2)CC1 (centres unmarked) | -80.8
CCOc1ccc(C(=S)NC2CCCCC2)cc1OCC | -7.96
CCOC(=O)C1=NN(c2cccc(Cl)c2)C2=NC(C)=C(C(=O)OC)C(c3cccs3)N12 (centres unmarked) | 6.72
COc1ccc(C(=O)Nc2ccccc2C(=O)NCC2CCCO2)cc1 (centres unmarked) | 4.28
Cc1nc2ccccc2nc(C)c1=NOCc1cccc(Cl)c1 | -7.4
COc1ccc(/C=N/OCC(=O)NCC(C)C)c(OC)c1 | 1.44
Cc1nc2ccccn2c1-c1csc(NCc2ccco2)n1 | -74.6
O=c1[nH]c2ccccc2c(O)c1-c1cc2ccccc2oc1=O | 27.9
CCCCN(Cc1ccccc1)C1CCN(CCc2ccccc2)CC1 | -72.2
O=C(Cc1nc2ccccc2[nH]1)c1ccc([N+](=O)[O-])cc1 | -2.13
COc1ccccc1Nc1nc(C2(C)CCC(=O)O2)cs1 (centres unmarked) | -13
O=C(Nc1ccc2c(c1)OCCO2)c1c(F)cccc1F | 6.29

SMILES | hERG current change (%, negative = inhibition) at 10uM [%]
COc1ccc(C)c2sc(NC(=O)C3=COCCO3)nc12 | 13.3
COc1ccccc1CCNC(=O)C(=O)NCC1OCCCN1S(=O)(=O)c1ccc(F)cc1C (centres unmarked) | -12.6
CCOc1cccc(NC(=O)C2CCCN(S(=O)(=O)c3ccc(OC)cc3)C2)c1 (centres unmarked) | -11
O=C(/C=C/c1ccc2c(c1)OCO2)Nc1nc(-c2ccc(F)cc2)cs1 | 6.25
CS(=O)(=O)Nc1ccc(C(=O)NCCSC2CCCCC2)cc1 | -20.5
CC(=O)c1c(C(C)=O)c(C)n(-c2ccc(N)cc2)c1C | 0.535
CC(C)C(NC(=O)C1CCCCC1)C(=O)N1CCN(c2ccc(F)cc2)CC1 (centres unmarked) | -55.7
Cc1ccc(S(=O)(=O)CC2CSc3nc4ccccc4n32)cc1 (centres unmarked) | -34.3
Cn1cnc([N+](=O)[O-])c1Oc1ccc2ccccc2c1 | -0.963
Clc1ccc(OCCCNCc2ccccc2)c(Br)c1.O=C(O)C(=O)O | -64.4
Cc1c(Cl)cnc(NC(=O)COC(=O)c2cccs2)c1Cl | 9.57
Cc1cccc(OCC(=O)NC2CCCCCC2)c1C | 3.98
CN(C)C(=O)C1(c2ccccc2)CCN(S(=O)(=O)c2ccccc2)CC1 | 12.9
CC(C)CC(=O)N1CCN(C(=O)CCC2CCCC2)CC1 | 1.8
Cc1csc(NC(=O)CN2C(=O)c3ccccc3S2(=O)=O)n1 | 7.89
COc1ccccc1CN(C(=O)c1ccco1)C(C(=O)NC1CCCC1)c1ccncc1 (centres unmarked) | -8.04
Cc1ccc(C2(C)NC(=O)N(CC(=O)Nc3c(C)n(C)n(-c4ccccc4)c3=O)C2=O)cc1 (centres unmarked) | 7.86
CC(C)Cn1c(N)c(C(=O)COC(=O)c2ccccc2Cl)c(=O)n(C)c1=O | -41.7
C=C(C(=O)Nc1ccccc1)c1ccc(C)cc1 | -4.77
O=C(O)/C=C/C(=O)NCCC1=CCCCC1 | 15
CCOC(=O)c1ccc(NC(=O)COc2ccc(CNC3CCCCC3)cc2OC)cc1 | -26
O=[N+]([O-])c1cnn2cc(Br)cnc12 | 10.2
Cn1c(NC(=O)c2ccc(F)cc2)c(-c2cccs2)c(=O)c2ccccc21 | 8.27

SMILES | hERG current change (%, negative = inhibition) at 10uM [%]
O=C(CSc1nnc(SCc2cccc3ccccc23)s1)Nc1ccc(C(=O)O)cc1 | 15
CCc1ccc(NC(=O)C(=O)c2cn(CC(=O)N3CCCCC3)c3ccccc23)cc1 | 12.5
CCC(C(=O)Nc1cccc(S(=O)(=O)N(C)c2ccccc2)c1)c1ccccc1 (centres unmarked) | -3.74
COc1cc(C2NC(=S)NC(c3ccccc3)=C2C(C)=O)cc(Cl)c1OCC(=O)O (centres unmarked) | 5.99
COc1cccc(N2CCN(C(=O)c3ccc(CS(=O)Cc4ccccc4Cl)o3)CC2)c1 (centres unmarked) | -70.7
Cc1cc(C)cc(NS(=O)(=O)c2ccc(NC(=S)Nc3ccccc3)cc2)c1 | -12.5
O=[N+]([O-])c1cc(C(F)(F)F)ccc1N1CCC(O)CC1 | 0.342
COc1cc(C)c(Cc2cnc(N)nc2N)cc1OC | -7.19
CCOc1ccc(/C=C/C(=O)OCC(=O)c2ccccc2OC)cc1OC | 14
Cc1noc(NS(=O)(=O)c2ccc(NC(=O)COc3ccccc3)cc2)c1C | -0.448
Cc1ccc(S(=O)(=O)N2CCC(C)CC2)c([N+](=O)[O-])c1 | -12.9
Cc1cc(C)c2c3c(sc2n1)C(c1cccc(F)c1)C(C#N)=C(N)O3 (centres unmarked) | 1.33
COc1ccc(S(=O)(=O)N2CCCCC2)cc1NC(=O)C1CC1C (centres unmarked) | -9.97
CC(C)n1c(SCC(=O)Nc2ccccc2N2CCOCC2)nc2c1c(=O)n(C)c(=O)n2C | -39.1
NS(=O)(=O)c1ccc(CNC(=O)c2cc(-c3cccnc3)nc3ccc(Cl)cc23)cc1 | 8.25
COc1ccc(/C=C/C(=O)Nc2cccnc2Cl)cc1 | 19.6
CC(=O)c1cccc(NC(=O)C2C3CCC(C3)C2C(=O)O)c1 (centres unmarked) | 4.1
CS(=O)(=O)N(CC(=O)Nc1ccccc1Sc1ccccc1)c1cccc(Br)c1 | -7.48
CC1(C)CC(=O)C(C(C2=C(O)CC(C)(C)CC2=O)c2cccnc2)C(=O)C1 (centres unmarked) | 12.4
CC12CCC(C1)C(C)(C)C2NS(=O)(=O)c1ccc(F)cc1 (centres unmarked) | -3.5
Cc1ccc(S(=O)(=O)NC(C(=O)OCC(=O)NC(=O)c2cccn2C)C(C)C)cc1 (centres unmarked) | -25.3
CCc1nc2ccccc2c(C(=O)OCC(=O)Nc2ccc(S(=O)(=O)N3CCOCC3)cc2)c1C | 4.43
O=C(NNC(=S)Nc1ccc(OC(F)F)cc1)c1cc2c(s1)CCCC2 | -16.3

SMILES | hERG current change (%, negative = inhibition) at 10uM [%]
O=C(Nc1ccc(F)cc1)c1cc2ccccc2o1 | 20
NS(=O)(=O)c1ccc(CCNS(=O)(=O)Cc2ccc(Cl)cc2)cc1 | 16.9
O=C(NCCN1CCOCC1)c1cccnc1SCc1ccccc1Cl | -8.85
CCOc1ccc(-c2noc(CCC(=O)NC3CCCCC3)n2)cc1OC | 7.72
COc1ccc(N2C(=O)c3ccccc3NC23C(=O)N(C)c2ccccc23)cc1 (centres unmarked) | 2
Cc1cccc(C(=O)NCCNC(=O)c2ccccn2)c1 | 5.88
CCOC(=O)c1c(NC(=O)C2CC2)sc2c1CC(C)(C)OC2 | -7
CS(=O)c1nc(-c2ccc(Br)cc2)cc(-c2ccccc2)c1C#N (centres unmarked) | 0.0465
Cn1c2ccc(F)cc2c2nc3ccccc3nc21 | -25.2
CN1CCC(N(C)C(=O)c2ccc(Cl)c(S(=O)(=O)N3CCCCC3)c2)CC1 | -42.5
O=C(CCCn1nnnc1CN1CCOCC1)N1CCC(c2ccc(F)cc2)C1 (centres unmarked) | -32.1
O=C1N=C(N2CCCC2)CN1c1ccccc1 | 18.3
C/C=C(\NC(C)=O)c1ccccc1 | 14.5
CCOC(=O)c1cn2c(C)cccc2n1 | 7.1
Cn1c(/C=N/n2cnnc2)nc2ccccc21 | 1.16
CSCCC(NS(=O)(=O)c1ccc2ccccc2c1)C(=O)O (centres unmarked) | 19.1
CCCc1nnc(NC(=O)CCC(=O)N2CCN(c3nc(C)cc(C)n3)CC2)s1 | -4.66
COc1nc(OC)nc(N2CCC(C(=O)NC3CC3)CC2)n1 | 18.1
Cc1ccc(CSc2nnc(-c3ccccc3N)c(=O)[nH]2)cc1 | 11.7
CC(OC(=O)/C=C/c1ccccc1)C(=O)N1CCc2ccccc21 (centres unmarked) | 10.2
